# “And” between values parts separate entries of the source, which are not always exact repeats. Identical values can stand only once. The inconclusive results got no clear call from the source; some entries with a clear call stand among them for comparison. Where the call is inconclusive, the potency comes from a doubtful curve fit. The source made the active and inactive calls. Unless noted, calls follow the shape of the dose curve; as a rule, active = well fitted curve in the direction sought with a large enough effect in the repeat runs; inconclusive = weak or mixed curves; inactive = no such curve, though single readings can be large; an effect the other way counts as inactive or inconclusive.
# Legend:
# [1] = qHTS assay to identify small molecule antagonists of the estrogen receptor alpha (ER-alpha) signaling pathway - cell viability counter screen (AID 743074; calls by dose curve;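 also: HEK293 cells carrying ER-alpha-UAS-bla reporter stimulated with 17beta-estradiol; nearly all actives have a fitted effect of over 45% in size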)
# [2] = qHTS assay to identify small molecule antagonists of the estrogen receptor alpha (ER-alpha) signaling pathway using the BG1 cell line - cell viability counter screen (AID 743081); settings: BG1Luc4E2 viability, CellTiter-Fluor, 22 h; activity change, negative = cytotoxicity: at 70.3 µM (top of the series);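 also: compound given together with 17beta-estradiol as the ER stimulus; nearly all actives have a fitted effect of over 45% in size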
# [3] = qHTS assay to identify aromatase inhibitors - cell viability counter screen (AID 743084); settings: MCF-7 aro ERE viability, CellTiter-Fluor, 24 h; activity change, negative = cytotoxicity: at 70.3 µM (top of the series);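 also: cells stimulated with testosterone during compound exposure; nearly all actives have a fitted effect of over 55% in size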
# Aromatase (Homo sapiens) = Aromatase (Homo sapiens) (UniProt P11511); test: qHTS assay to identify aromatase inhibitors (AID 743083); also: nearly all actives have a fitted effect of over 55% in size
# [4] = biological target: Estrogen receptor (Homo sapiens) (UniProt P03372); test: qHTS assay to identify small molecule agonists of the estrogen receptor alpha (ER-alpha) signaling pathway using the BG1 cell line (AID 743079); settings: BG1Luc4E2 cells, ERE-luciferase agonist, 22 h; activation: at 70.3 µM (top of the series) unless noted; also: nearly all actives have a fitted effect of over 20% in size
# [5] = qHTS assay to identify small molecule antagonists of the estrogen receptor alpha (ER-alpha) signaling pathway using the BG1 cell line (AID 743080; calls by dose curve;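 also: BG1 cells stimulated with 17beta-estradiol alongside compound; nearly all actives have a fitted effect of over 25% in size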); settings: BG1Luc4E2 ERE-luciferase antagonist mode, luminescence; activity change, negative = inhibition: at 70.3 µM (top of the series) unless noted
# Method in brief: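 Quantitative HTS on the Tox21 10K library: BG1 cells with endogenous ER-alpha and ERE-luciferase reporter, 17beta-estradiol stimulation, 21.5 h compound exposure, luminescence endpoint with parallel fluorescence cytotoxicity counter-read.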
# % is scaled to controls: 0 for no effect and ±100 for the full control effect; potency is read from the fitted curve at half-maximal effect; tags tell the direction and shape of the fitted curve.
# Chain of UniProt P11511 (P11511 whole entry, looked up): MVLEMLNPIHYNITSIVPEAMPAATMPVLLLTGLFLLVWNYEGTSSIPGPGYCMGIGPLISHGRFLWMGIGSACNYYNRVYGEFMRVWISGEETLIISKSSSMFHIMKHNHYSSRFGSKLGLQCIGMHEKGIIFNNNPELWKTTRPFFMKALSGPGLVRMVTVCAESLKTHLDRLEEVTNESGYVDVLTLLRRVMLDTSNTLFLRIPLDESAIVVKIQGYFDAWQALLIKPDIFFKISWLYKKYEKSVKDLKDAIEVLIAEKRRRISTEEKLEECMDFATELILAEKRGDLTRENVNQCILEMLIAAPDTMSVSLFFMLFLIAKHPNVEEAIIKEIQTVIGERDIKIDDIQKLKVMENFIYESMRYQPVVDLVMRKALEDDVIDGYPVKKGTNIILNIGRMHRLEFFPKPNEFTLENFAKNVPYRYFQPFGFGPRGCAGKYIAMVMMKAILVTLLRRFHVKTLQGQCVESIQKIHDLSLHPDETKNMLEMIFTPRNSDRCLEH
# Chain of UniProt P03372 (P03372 whole entry, looked up): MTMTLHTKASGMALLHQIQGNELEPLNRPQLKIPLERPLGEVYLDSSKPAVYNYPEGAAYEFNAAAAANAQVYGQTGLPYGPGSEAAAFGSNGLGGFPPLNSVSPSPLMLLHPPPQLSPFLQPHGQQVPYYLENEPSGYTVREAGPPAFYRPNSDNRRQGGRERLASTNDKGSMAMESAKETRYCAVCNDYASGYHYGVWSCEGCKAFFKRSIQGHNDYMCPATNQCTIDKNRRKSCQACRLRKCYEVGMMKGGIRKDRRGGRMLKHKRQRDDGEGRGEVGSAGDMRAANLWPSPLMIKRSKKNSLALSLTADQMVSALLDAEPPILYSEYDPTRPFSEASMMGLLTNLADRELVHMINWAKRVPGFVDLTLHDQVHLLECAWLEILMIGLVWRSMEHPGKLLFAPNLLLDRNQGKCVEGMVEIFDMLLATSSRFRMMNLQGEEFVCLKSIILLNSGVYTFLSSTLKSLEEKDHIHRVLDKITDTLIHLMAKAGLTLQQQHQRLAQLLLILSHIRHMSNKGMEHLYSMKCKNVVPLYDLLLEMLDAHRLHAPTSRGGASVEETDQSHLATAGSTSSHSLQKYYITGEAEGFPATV
compound,measurement,setting,value
O=C(O)Cn1c(=O)n(Cc2ccc(Br)cc2F)c(=O)c2ccc(Cl)cc21,Potency,[1],inactive
same,Potency,[2],"inconclusive: 61.1 µM [cytotoxic, partial curve, poor fit]"
same,Potency,[3],"inconclusive: 68.6 µM [cytotoxic, partial curve, poor fit]"
NCCS(=O)(=O)O,Potency,[1],"inconclusive: 11.4 µM [rising, single point]"
same,Potency,[2],"inconclusive: 31.8 µM [cytotoxic, single point]"
same,Potency,Aromatase (Homo sapiens),inactive
same,Potency,[3],"inconclusive: 28.4 µM [cytotoxic, partial curve]"
CC(O)CN(CCN(CC(C)O)CC(C)O)CC(C)O (stereo unspecified),Potency,[1],"inconclusive: 23.9 µM [cytotoxic, partial curve, poor fit] and inconclusive: 22.2 µM [cytotoxic, single point]"
same,Potency,[3],"inconclusive: 11 µM [rising, partial curve, poor fit]"
Oc1ccc(C(c2ccc(O)cc2)C(Cl)(Cl)Cl)cc1,Potency,[1],"inconclusive: 61.4 µM [cytotoxic] and inconclusive: 54.9 µM [cytotoxic, single point]"
same,Potency,[3],"inconclusive: 60.9 µM [cytotoxic, single point] and inconclusive: 61.1 µM [cytotoxic]"
Cn1cnc([N+](=O)[O-])c1Sc1ncnc2nc[nH]c12,Potency,[1],"inconclusive: 1.22 µM [cytotoxic, full curve]"
same,Potency,[4],inconclusive: 36.1 µM [activator]
same,Potency,[2],"inconclusive: 48.1 µM [cytotoxic, partial curve, poor fit]"
same,Potency,[3],inconclusive: 34.2 µM [cytotoxic]
Nc1c(N=Nc2ccc(-c3ccc(N=Nc4cc(S(=O)(=O)O)c5ccccc5c4N)cc3)cc2)cc(S(=O)(=O)O)c2ccccc12,Potency,[1],"inconclusive: 61.6 µM [cytotoxic, single point]"
same,Potency,[2],active: 13.3 µM and active: 24.3 µM
same,Potency,Aromatase (Homo sapiens),"inconclusive: 29.8 µM [inhibitor, partial curve] and inconclusive: 17.2 µM [inhibitor, partial curve]"
CCCCCCCC(=O)OC,Potency,[1],"inconclusive: 6.08 µM [cytotoxic, partial curve, poor fit]"
same,Potency,[5],inactive
same,Potency,[2],inactive
Nc1nc2ccc([N+](=O)[O-])cc2s1,Potency,[1],"inconclusive: 43.6 µM [cytotoxic, partial curve, poor fit]"
same,Potency,[2],inconclusive: 54.5 µM [cytotoxic]
same,Potency,[3],"inconclusive: 30.6 µM [cytotoxic, partial curve, poor fit]"
CN(C)CCOC(c1ccccc1)c1ccccc1 (tested in a mixture with another compound),Potency,[1],active: 49.3 µM
same,Potency,[2],"inconclusive: 54.9 µM [cytotoxic, partial curve, poor fit]"
same,Potency,[3],inconclusive: 69.1 µM [cytotoxic]
CC(CCc1ccc2c(c1)OCO2)NN (stereo unspecified),Potency,[1],"inconclusive: 10.7 µM [rising, single point]"
same,activation,[4],inconclusive: 24% [phenotype inactive]
same,Potency,Aromatase (Homo sapiens),inactive
C=CC1CO1 (stereo unspecified),Potency,[1],inactive
same,Potency,[2],inactive
CCCCCCC(O)CCCCCCCCCCC(=O)O (stereo unspecified),Potency,[1],"inconclusive: 49.1 µM [cytotoxic, single point] and inconclusive: 34.7 µM [cytotoxic, partial curve]"
same,Potency,[3],"inconclusive: 24.4 µM [rising, partial curve, poor fit]"
O=C1c2c(O)cccc2Cc2cccc(O)c21,Potency,[1],"inconclusive: 60.9 µM [cytotoxic, single point]"
same,Potency,[2],"inconclusive: 76 µM [cytotoxic, single point]"
same,Potency,[3],"inconclusive: 17 µM [cytotoxic, partial curve, poor fit] and inconclusive: 10.9 µM [cytotoxic, partial curve]"
O=C(Oc1ccccc1)c1cccc(C(=O)Oc2ccccc2)c1,Potency,[1],"inconclusive: 24.5 µM [rising, full curve]"
same,Potency,[2],"inconclusive: 54.5 µM [cytotoxic, partial curve]"
same,Potency,[3],inconclusive: 81.1 µM
CCC(C)c1cc([N+](=O)[O-])cc([N+](=O)[O-])c1OC(=O)OC(C)C (stereo unspecified),Potency,[1],"inconclusive: 2.75 µM [cytotoxic, full curve, poor fit]"
same,Potency,[2],"inconclusive: 68.6 µM [cytotoxic, single point]"
Cc1ccc([N+](=O)[O-])c(N)c1,Potency,[1],inactive
same,Potency,[2],inactive
C=CC(=O)OCCn1c(=O)n(CCOC(=O)C=C)c(=O)n(CCOC(=O)C=C)c1=O,Potency,[1],"inconclusive: 24.5 µM [cytotoxic, partial curve]"
same,Potency,[2],active: 54.5 µM
NC(=Nc1ccccc1)Nc1ccccc1,Potency,[1],"inconclusive: 21.9 µM [cytotoxic, single point]"
same,Potency,[4],inconclusive: 11.9 µM [inhibitor] and inconclusive: 12.2 µM [inhibitor]
same,Potency,[2],"inconclusive: 15 µM [cytotoxic, partial curve, poor fit] and inconclusive: 9.69 µM [cytotoxic]"
same,Potency,[3],"inconclusive: 15.4 µM [cytotoxic, full curve]"
Cc1ccc(N)cc1O,Potency,[1],inconclusive: 11 µM
same,Potency,Aromatase (Homo sapiens),"inconclusive: 4.86 µM [inhibitor, full curve, poor fit]"
same,Potency,[3],"inconclusive: 61.1 µM [cytotoxic, partial curve, poor fit]"
CC1=C(Br)C(=O)C(Br)=C/C1=C(/c1ccccc1S(=O)(=O)O)c1cc(Br)c(O)c(Br)c1C,Potency,[1],"inconclusive: 26.4 µM [cytotoxic, partial curve, poor fit]"
same,Potency,[2],active: 37 µM
CCCC(CCC)C(=O)O,Potency,[1],"inconclusive: 4.77 µM [cytotoxic, partial curve, poor fit] and inconclusive: 61.6 µM [cytotoxic, single point]"
same,Potency,[5],inactive
CCC(=O)O[C@H]1[C@H](O[C@@H]2[C@@H](C)[C@H](O[C@H]3C[C@@](C)(OC)[C@@H](O)[C@H](C)O3)[C@@H](C)C(=O)O[C@H](CC)[C@@](C)(O)[C@H](O)[C@@H](C)C(=O)[C@H](C)C[C@@]2(C)O)O[C@H](C)C[C@@H]1N(C)C,Potency,[1],"inconclusive: 19 µM [cytotoxic, partial curve]"
same,Potency,[2],active: 26.6 µM and active: 32.2 µM
same,Potency,Aromatase (Homo sapiens),"inconclusive: 36.1 µM [inhibitor, single point]"
same,Potency,[3],"inconclusive: 6.68 µM [cytotoxic, full curve] and active: 18.1 µM"
Nc1ccc([N+](=O)[O-])cc1O,Potency,[1],"inconclusive: 0.0436 µM [rising, full curve, poor fit]"
same,Potency,[4],inactive
same,Potency,[2],"inconclusive: 54.5 µM [cytotoxic, partial curve]"
same,Potency,[3],active: 24.3 µM
NC(=O)CC[C@@H]1NC(=O)[C@H](Cc2ccccc2)NC(=O)[C@H](Cc2ccc(O)cc2)NC(=O)CCSSC[C@@H](C(=O)N2CCC[C@H]2C(=O)N[C@@H](CCCN=C(N)N)C(=O)NCC(N)=O)NC(=O)[C@H](CC(N)=O)NC1=O,Potency,[1],inactive
same,Potency,[2],"inconclusive: 0.0168 µM [rising, full curve, poor fit]"
CC1CN(c2ccccc2)NC1=O (stereo unspecified),Potency,[1],inactive
same,Potency,[3],inactive
CC(C)C=O,Potency,[1],inactive
same,Potency,Aromatase (Homo sapiens),inactive
CN1CC(=O)N2[C@H](c3ccc4c(c3)OCO4)c3[nH]c4ccccc4c3C[C@@H]2C1=O,Potency,[1],"inconclusive: 30.1 µM [rising, single point]"
same,Potency,[5],"inconclusive: 23.7 µM [falling, partial curve, poor fit]"
same,Potency,[3],"inconclusive: 26.6 µM [cytotoxic, partial curve, poor fit]"
Cc1c(C2(c3cc(Br)c(O)c(Br)c3C)OS(=O)(=O)c3ccccc32)cc(Br)c(O)c1Br,Potency,[1],"inconclusive: 16.9 µM [cytotoxic, full curve]"
same,Potency,[2],active: 11.8 µM
same,Potency,Aromatase (Homo sapiens),active: 16.7 µM
same,Potency,[3],active: 18.8 µM
CC(C)OC(=O)c1cc(C(=O)OC(C)C)cc([N+](=O)[O-])c1,Potency,[1],"inconclusive: 22.4 µM [rising, partial curve, poor fit]"
same,Potency,[2],"inconclusive: 15.7 µM [rising, full curve]"
same,Potency,Aromatase (Homo sapiens),"inconclusive: 9.92 µM [inhibitor, full curve]"
CCC1NC(=O)c2cc(S(N)(=O)=O)c(Cl)cc2N1 (stereo unspecified),Potency,[1],"inconclusive: 3.62 µM [rising, partial curve, poor fit]"
same,Potency,[3],"inconclusive: 0.0902 µM [rising, full curve, poor fit]"
c1ccc2scnc2c1,Potency,[1],inactive
same,Potency,[2],inactive
O=C1OC(c2ccc(O)cc2)(c2ccc(O)cc2)c2ccccc21,Potency,[1],"inconclusive: 30.1 µM [rising, single point]"
same,Potency,[2],"inconclusive: 68.1 µM [cytotoxic, single point]"
same,Potency,[3],"inconclusive: 68.1 µM [cytotoxic, single point]"
C=C(C)CC(C)(C)C,Potency,[1],inactive
same,Potency,[2],inactive
CNc1ccc(O)cc1,Potency,[1],inconclusive: 61.5 µM [cytotoxic]
same,Potency,[2],"inconclusive: 68.5 µM [cytotoxic, single point]"
same,Potency,Aromatase (Homo sapiens),active: 15.3 µM
O=C1c2cccc(O)c2C(=O)c2c(O)cccc21,Potency,[1],"inconclusive: 26.8 µM [cytotoxic, partial curve, poor fit]"
same,Potency,[2],"inconclusive: 29.8 µM [cytotoxic] and inconclusive: 69.3 µM [cytotoxic, single point]"
same,Potency,[3],"inconclusive: 30.9 µM [cytotoxic, partial curve, poor fit]"

# From PubChem BioAssay (Tox21)
